# Data from PubChem BioAssay AID1508624 (National Center for Advancing Translational Sciences (NCATS), 2021).
# Out of some 48,000 compounds screened, about 120 (0.25%) were called active. Not shown: some 4% with an inconclusive outcome. Calls follow the shape of the dose curve; as a rule, active = well fitted activation curve with a large enough effect; inconclusive = small, poorly fitted or top-dose-only effect, or another doubt; inactive = no such curve, though single readings can be large or run the other way. This is one part of the list.
# Test: Primary qHTS for Identification of Small Molecule Activators of Huntingtin-Antisense Promoter Activity; also: nearly all actives have a fitted effect of over 55% in size
# Details: HEK293 HTT-AS promoter firefly luciferase reporter (activity 0% = vehicle and -100% = no light), 24 h; series mostly up to 57.5 µM; activity change, positive = activation: at the top concentration
# Outline: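 HEK293 luciferase promoter-reporter cells (2,500/well) plated 24 h, then compounds added at up to 57.5 uM final for 24 h at 37 °C. Firefly luminescence by Dual-Glo, normalized to vehicle (0%) and zero RLU (-100%).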
row,SMILES,"activity change, positive = activation"
1,CCN(CC)C(=O)CSc1nc2ccsc2c(=O)n1Cc1ccccc1Cl,inactive: -30.4%
2,Cc1cc(C)n2c(Nc3ccc(C(C)C)cc3)c(-c3ccsc3)nc2n1,inactive: 9.38%
3,COCCNC(=O)Cn1c(=O)n(CCCCCC(=O)NCc2ccccc2Cl)c(=O)c2sccc21,inactive: -9.1%
4,Cc1ccc(NC(=O)Cn2c(=O)oc3cc(S(=O)(=O)N4CCCCC4)ccc32)c(Cl)c1,inactive: -46.2%
5,Cc1cccc(Cn2c(SCc3ccc(C(=O)NCc4ccccc4F)cc3)nc3ccncc32)c1,inactive: -20.8%
6,CCN(CC)CCCNC(=O)CCCn1ncn2c(cc3occc32)c1=O,inactive: -1.81%
7,CC1CCCCN1C(=O)Cn1ncc2c3ccccc3n(Cc3ccccc3F)c2c1=O (centres undefined),inactive: -16.9%
8,COc1ccccc1-c1noc(-c2ccc(NC3CCCCC3)c([N+](=O)[O-])c2)n1,inactive: -11.8%
9,CC(C)(C)C1CCc2c(sc3nc(-c4cc5ccccc5oc4=O)[nH]c(=O)c23)C1 (centres undefined),inactive: 0.17%
10,CSc1ncc(C(=O)N2CCN(c3cccc(Cl)c3)CC2)c(C)n1,inactive: -22.7%
11,O=C(CCCn1c(=O)c2cccn2c2cccnc21)NCc1ccccc1Br,inactive: 0.669%
12,O=C(CC1C(=O)N(c2ccccc2)C(=O)N1CCc1cccs1)Nc1ccc(F)cc1 (centres undefined),inactive: -5.27%
13,Cc1c(C)n(Cc2ccc(F)cc2)c2ccc(C(=O)NCc3ccco3)cc12,inactive: -20.7%
14,CCOc1ccc(CCNC(=O)Cn2nnc(-c3ccccc3Cl)n2)cc1OCC,inactive: -16%
15,O=C(CSc1ncc(-c2ccccc2)[nH]1)Nc1ccc(Cl)cc1,inactive: 6.83%
16,O=C(Cn1c(=O)nc(-c2ccccc2)c2cc(Cl)ccc21)N1CCN(c2ccccc2F)CC1,inactive: -12%
17,CCOC(=O)c1sc2ccccc2c1S(=O)(=O)N1CCN(c2cccc(C)c2)C(C)C1 (centres undefined),inactive: -28.4%
18,COc1ccc2c(c1)CC(C(=O)NCCCN1CCN(c3cccc(Cl)c3)CC1)CO2 (centres undefined),inactive: -24%
19,Cc1ccccc1CNC(=O)c1oc2c(c1C)-c1[nH]ncc1CC2,inactive: 2.22%
20,Cc1ccccc1Nc1nn2c(=O)c3ccc(C(=O)NCCc4ccc(Cl)cc4)cc3nc2s1,inactive: -33.7%
21,Cc1ccc2nc(Cl)c3cc(C(=O)N4CCCCC4C)sc3c2c1 (centres undefined),inactive: -7.21%
22,COc1ccc(Cl)cc1NC(=O)CN1C(=O)C(C)(C)c2cc(S(=O)(=O)N3CCCCC3)ccc21,inactive: -29.1%
23,O=P(O)(O)C(O)(Cc1cccnc1)P(=O)(O)O,inactive
24,CC(C)C1C(=O)Nc2ccc(S(=O)(=O)NCCc3ccc(Cl)cc3)cc21 (centres undefined),inactive: -30%
25,Cc1cccc(-n2ncc(C(=O)N3CCN(c4ccc(C)cc4C)CC3)c2C2CCN(C(=O)OC(C)(C)C)CC2)c1,inactive: 3.67%

row,SMILES,"activity change, positive = activation"
1,Cc1cc(N2CCN(C)CC2)nc2ccc(NC(=O)Nc3cccc(Cl)c3)cc12,inactive: -1.24%
2,Cc1cn(C)c(CC(=O)NCc2ccccc2)c1C(=O)O,inactive: -4.82%
3,Cc1ccsc1CN(C(=O)c1oc2ccc(Br)cc2c1C)C1CCS(=O)(=O)C1 (centres undefined),inactive: -37%
4,CCN1c2ccccc2-c2nc(SCC(=O)NCc3ccc(Cl)cc3)ncc2S1(=O)=O,inactive: -25.4%
5,CCOc1ccc(C2c3c(oc4ccc(C)cc4c3=O)C(=O)N2CCCN2CCOCC2)cc1 (centres undefined),inactive: -8.64%
6,CCOc1ccc(Nc2c(S(=O)(=O)c3ccc(Cl)cc3)cnc3ccc(OCC)cc23)cc1,inactive: -19.3%
7,Cc1ccc(Cl)cc1N1CCN(C(=O)c2c(C)oc3ncnc(N4CCCCC4)c23)CC1,inactive: -40.2%
8,COc1ccc(-n2nc(CCC(=O)N(C)O)cc2-c2ccc(Cl)cc2)cc1,inactive: -1.17%
9,CCCCOc1cccc(C(=O)Nc2cc(NC(=O)c3ccco3)ccc2OC)c1,inactive: -22%
10,CCc1ccc(CN2CCc3nc(N4CCN(c5ccccc5F)CC4)ncc3C2)cc1,inactive: -69%
11,CCc1ccc(C2=C(C)C(N3CCC(C(=O)NCc4ccccc4)CC3)=NS2(=O)=O)cc1,inactive: -22.1%
12,Cc1ccc2c(c1)-c1c(cnc3cc(-c4ccc(F)cc4)nn13)CO2,inactive: -4.95%
13,Cc1ccc(CNC(=O)c2c(O)nc3cc(C)ccn3c2=O)cc1,inactive: -18%
14,CC(c1ccccc1)n1cc2c(c1-c1ccccc1Br)c(=O)n(C)c(=O)n2C (centres undefined),inactive: -40.7%
15,COc1ccc(-c2cnc(C)o2)cc1S(=O)(=O)Nc1c(C)cc(C)cc1C,inactive: -23.6%
16,COc1cccc(NC(=O)CCc2c(C)nc3nc(CNC(=O)c4cccc(F)c4)nn3c2C)c1,inactive: -14.1%
17,C#CCOc1ccc(-c2nnc(Nc3ccc(NC(C)=O)cc3)c3ccccc23)cc1,inactive: -14.7%
18,CC(C)COc1ccc(C(=O)N2CCCCC2CCN2CCCCC2)cc1 (centres undefined),inactive: -2.36%
19,CC(=O)OCC(=O)[C@@]12OC(C)(C)O[C@H]1C[C@H]1[C@@H]3C[C@H](F)C4=CC(=O)C=C[C@]4(C)[C@@]3(F)[C@@H](O)C[C@@]12C,inactive: 0.58%
20,COc1ccc(CCNC(=O)c2cnn(-c3cccc(C)c3)c2C2CCN(C(=O)OC(C)(C)C)CC2)cc1OC,inactive: -27.1%
21,COc1cccc2c1ncc1c(-c3ccc(C)cc3)nn(-c3ccc(F)cc3)c12,inactive: -25.1%
22,Cc1cccc(-c2nnn3c2nc(NCc2ccc4c(c2)OCO4)c2ccccc23)c1,inactive: 12.5%
23,O=C(NCCc1ccccc1)c1ccc2c(c1)N(Cc1ccccc1)C(=O)c1ccccc1S2(=O)=O,inactive: -0.974%
24,O=C(NCCc1ccccc1)C1CCN(Cc2cc3ccccc3n2Cc2cccc(Cl)c2)CC1,inactive: -26.6%
